Measurements: the supplement of paper PMC4604168 (melanoma cell lines)
The list shows a part of the results. Single values are uncertain, as repeats are few or missing.

How the values were obtained:
Experiment in all cases: cell count relative to DMSO control; melanoma cells; higher = more viable cells
Conditions in all cases: library dose: low library concentration; 72 h
MZ2-MEL = test system: MZ2-MEL
MeWo = test system: MeWo
RPMI7951 = test system: RPMI7951
RVH-421 = test system: RVH-421
SkMel28 = test system: SkMel28
SkMel2 = test system: SkMel2
SkMel30 = test system: SkMel30
SkMel5 = test system: SkMel5
UACC257 = test system: UACC257
UACC62 = test system: UACC62
WM115 = test system: WM115
WM1716 = test system: WM1716
WM1745 = test system: WM1745
WM3526 = test system: WM3526
WM3619 = test system: WM3619
WM451Lu = test system: WM451Lu
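Note: cell number obtained by counting DAPI-stained nuclei in high-throughput microscope images with image analysis software, screen run in 1,536-well plates.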

Row | Compound | cell count (MZ2-MEL) [%] | cell count (MeWo) [%] | cell count (RPMI7951) [%] | cell count (RVH-421) [%] | cell count (SkMel28) [%] | cell count (SkMel2) [%] | cell count (SkMel30) [%] | cell count (SkMel5) [%] | cell count (UACC257) [%] | cell count (UACC62) [%] | cell count (WM115) [%] | cell count (WM1716) [%] | cell count (WM1745) [%] | cell count (WM3526) [%] | cell count (WM3619) [%] | cell count (WM451Lu) [%]
1 | NC(=O)c1ccc(N(C(N)=O)c2c(F)cccc2F)nc1-c1ccc(F)cc1F + Cc1cc(SCc2sc(-c3ccc(C(F)(F)F)c(F)c3)nc2C)ccc1OCC(=O)O [GW0742] (first compound 0.4 µM, partner dose 2 µM) | 107 | 101 | 98.8 | 111 | 100 | 105 | 119 | 95.9 | 86.3 | 90.2 | 91 | 110 | 107 | 108 | 98.5 | 110
2 | Cn1c(=O)n(-c2ccc(C(C)(C)C#N)cc2)c2c3cc(-c4cnc5ccccc5c4)ccc3ncc21 + Cc1cc(SCc2sc(-c3ccc(C(F)(F)F)c(F)c3)nc2C)ccc1OCC(=O)O [GW0742] (first compound 0.004 µM, partner dose 2 µM) | 108 | 107 | 86.2 | 97.6 | 97.4 | 95.8 | 102 | 103 | 96 | 106 | 95.9 | 106 | 104 | 105 | 109 | 102
3 | C[C@@H](Oc1cc(-c2cnn(C3CCNCC3)c2)cnc1N)c1c(Cl)ccc(F)c1Cl [Crizotinib] + C/C(O)=C(\C#N)C(=O)Nc1cc(Br)ccc1Br [LFM-A13] (first compound 0.2 µM, partner dose 2 µM) | 95.3 | 102 | 92.7 | 91.5 | 90.6 | 97.2 | 105 | 93.4 | 112 | 86.9 | 103 | 99 | 102 | 99.7 | 111 | 84.2
4 | OCc1c[nH]c2ccccc12 [Indole-3-carbinol] + Cc1cc(SCc2sc(-c3ccc(C(F)(F)F)c(F)c3)nc2C)ccc1OCC(=O)O [GW0742] (first compound 0.8 µM, partner dose 2 µM) | 103 | 95.1 | 92.9 | 109 | 113 | 99.7 | 88.6 | 115 | 109 | 98 | 103 | 99.1 | 95.9 | 110 | 99.2 | 118
5 | O=C(Nc1cc(C(F)(F)F)cc(C(F)(F)F)c1)c1cc(Cl)ccc1O + C/C(O)=C(\C#N)C(=O)Nc1cc(Br)ccc1Br [LFM-A13] (first compound 0.016 µM, partner dose 2 µM) | 99.5 | 90.9 | 108 | 95.2 | 86.4 | 99 | 99.7 | 119 | 73 | 80.9 | 93.7 | 94.7 | 105 | 75.8 | 95.9 | 94.7
6 | CNC(=O)c1cc(Oc2ccc(NC(=O)Nc3ccc(Cl)c(C(F)(F)F)c3)cc2)ccn1 [sorafenib] + C/C(O)=C(\C#N)C(=O)Nc1cc(Br)ccc1Br [LFM-A13] (first compound 0.4 µM, partner dose 2 µM) | 91.1 | 109 | 86.5 | 91.4 | 79.2 | 98.9 | 101 | 98.3 | 95.3 | 92.3 | 81.6 | 84.2 | 88.6 | 77.6 | 101 | 83.2
7 | CS(=O)(=O)c1ccc(C(=O)Nc2ccc(Cl)c(-c3ccccn3)c2)c(Cl)c1 [vismodegib] + O=C(Oc1ccc([N+](=O)[O-])cc1)N1CCC(C(O)(c2ccc3c(c2)OCO3)c2ccc3c(c2)OCO3)CC1 [JZL184] (first compound 1 µM, partner dose 1 µM) | 107 | 95.4 | 98.8 | 91.6 | 109 | 106 | 97 | 81.7 | 115 | 104 | 99.6 | 96.4 | 114 | 83 | 99.7 | 99.7
8 | NC(=O)c1ccc(N(C(N)=O)c2c(F)cccc2F)nc1-c1ccc(F)cc1F + C/C(O)=C(\C#N)C(=O)Nc1cc(Br)ccc1Br [LFM-A13] (first compound 0.4 µM, partner dose 2 µM) | 106 | 102 | 85.4 | 77.2 | 91.6 | 96.7 | 103 | 93.5 | 101 | 82.7 | 96.8 | 97.9 | 96.4 | 86.1 | 91.5 | 94.5
9 | O=C(O)[C@@H]1[O][Sb](=[O])([O][Sb]2(=[O])[O][C@H]([C@H](O)CO)[C@H](O)[C@H](C(=O)O)[O]2)[O][C@H]([C@H](O)CO)[C@@H]1O (stereo partly specified) [stibogluconate] + C/C(O)=C(\C#N)C(=O)Nc1cc(Br)ccc1Br [LFM-A13] (first compound 2 µM, partner dose 2 µM) | 106 | 96.9 | 97.2 | 98.5 | 107 | 95.3 | 79.5 | 109 | 96.3 | 94.4 | 94.1 | 94.9 | 99.8 | 93.7 | 114 | 108
10 | C=C(c1ccc(C(=O)O)cc1)c1cc2c(cc1C)C(C)(C)CCC2(C)C [Bexarotene] + O=C(Oc1ccc([N+](=O)[O-])cc1)N1CCC(C(O)(c2ccc3c(c2)OCO3)c2ccc3c(c2)OCO3)CC1 [JZL184] (first compound 2 µM, partner dose 1 µM) | 106 | 100 | 94.8 | 86.8 | 85.3 | 94.3 | 96.5 | 96.1 | 113 | 99.3 | 98.6 | 71.4 | 102 | 72.9 | 97.6 | 89.8
11 | Cc1cn(-c2cc(NC(=O)c3ccc(C)c(Nc4nccc(-c5cccnc5)n4)c3)cc(C(F)(F)F)c2)cn1 [nilotinib] + C/C(O)=C(\C#N)C(=O)Nc1cc(Br)ccc1Br [LFM-A13] (first compound 0.2 µM, partner dose 2 µM) | 93.1 | 86.6 | 75.3 | 111 | 88 | 86.6 | 94.5 | 100 | 98.5 | 107 | 110 | 112 | 99.7 | 136 | 108 | 118
12 | CC[C@]1(O)C[C@H]2CN(CCc3c([nH]c4ccccc34)[C@@](C(=O)OC)(c3cc4c(cc3OC)N(C=O)[C@H]3[C@@](O)(C(=O)OC)[C@H](OC(C)=O)[C@]5(CC)C=CCN6CC[C@]43[C@@H]65)C2)C1 [vincristine] + N.N.[Cl][Pt][Cl] [cisplatin] (first compound 0.0001 µM, partner dose 1.6 µM) | 100 | 111 | 113 | 94 | 124 | 102 | 102 | – | – | 99.6 | 98.3 | 99.4 | 108 | 96.8 | 108 | 96.3
13 | Cc1cc(Nc2cc(N3CCN(C)CC3)nc(/C=C/c3ccccc3)n2)n[nH]1 + C/C(O)=C(\C#N)C(=O)Nc1cc(Br)ccc1Br [LFM-A13] (first compound 0.04 µM, partner dose 2 µM) | 98.2 | 97.9 | 107 | 87 | 89.7 | 113 | 74.5 | 93.1 | 87.8 | 80.7 | 87.9 | 100 | 93.2 | 95.2 | 96.5 | 86.9
14 | N#CC[C@H](C1CCCC1)n1cc(-c2ncnc3[nH]ccc23)cn1 [ruxolitinib] + C/C(O)=C(\C#N)C(=O)Nc1cc(Br)ccc1Br [LFM-A13] (first compound 1 µM, partner dose 2 µM) | 97 | 93.6 | 95.9 | 159 | 101 | 105 | 92.1 | 109 | 99 | 97.7 | 102 | 109 | 93.4 | 107 | 85 | 106
15 | OCc1c[nH]c2ccccc12 [Indole-3-carbinol] + C[As](C)SC[C@H](NC(=O)CC[C@H](N)C(=O)O)C(=O)NCC(=O)O [Darinaparsin] (first compound 0.8 µM, partner dose 0.4 µM) | 102 | 89.2 | 84.5 | 80.8 | 108 | 94.6 | 87.2 | – | – | 80.7 | 93.6 | 93.1 | 102 | 90.7 | 99 | 96.8
16 | C=CCNC1=C2C[C@@H](C)C[C@H](OC)[C@H](O)[C@@H](C)/C=C(\C)[C@H](OC(N)=O)[C@@H](OC)/C=C\C=C(/C)C(=O)NC(=CC1=O)C2=O [Tanespimycin] + C[As](C)SC[C@H](NC(=O)CC[C@H](N)C(=O)O)C(=O)NCC(=O)O [Darinaparsin] (first compound 0.002 µM, partner dose 0.4 µM) | 105 | 90.6 | 85 | 88.3 | 101 | 90.2 | 78.2 | – | – | 82.4 | 77.9 | 97 | 70 | 93.7 | 83.4 | 89
17 | Cn1cnc2c(F)c(Nc3ccc(Br)cc3Cl)c(C(=O)NOCCO)cc21 [selumetinib] + O=C(Oc1ccc([N+](=O)[O-])cc1)N1CCC(C(O)(c2ccc3c(c2)OCO3)c2ccc3c(c2)OCO3)CC1 [JZL184] (first compound 0.015 µM, partner dose 1 µM) | 106 | 90.9 | 98 | 76.3 | 75.5 | 84.7 | 101 | 93.9 | 85.3 | 88.8 | 95.6 | 100 | 106 | 87.1 | 86.4 | 109
